Assay results published in EP4793288A1.

Target: Recombinant HLA-G antigen (human) (UniProt P17693)
Test: monoclonal phage ELISA, Fab on phage, anti-M13 HRP (selection threshold)

B1: 2F1 (Fab clone displayed on phage) (Fab, V domains shown)
VH: EVQLVESGGGLVQPGGSLRLSCAASGFTFSSYAMSWVRQAPGKGLEWVSRISGSGGYIYYADSVKGRFTISRDNSKNTLYLQMNSLRAEDTAVYYCAKEGTSSYRGWMDVWGQGTLVTVSS
VL: [about 100 residues omitted]WTFGQGTKVEIK
  absorbance (OD450): > 0.4 OD450
